From the supplement of paper PMC11417369
Some of the results follow.

What follows are sequences tested on PfAP2-HC AP2 domain (GST-tagged) (assay: gcPBM binding intensity (ln(normalized median fluorescence intensity)); higher = stronger DNA binding).
Procedure, shortened: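 Binding intensity is the highest Masliner-normalised natural-log median intensity over replicate spots in either probe orientation. To obtain it, GST-tagged P. falciparum DNA-binding domains made in E. coli were incubated for 1 h on an Agilent 4 × 180k array of primer-extended double-stranded 36-bp intergenic genomic probes plus negative controls. Detection used Alexa488 anti-GST antibody with scanning at 488 nm.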

Row | Sequence | gcPBM binding intensity (ln)
1 | AATAGAAAAAAATAAGTGCATTTTGGTATTCATCAT [GTGCAC_site9614] | 9.74
2 | AAATTTATATTCATTTGTACGTAATTTAAATTATAC [XGTACX_site5870] | 9.69
3 | TTTTATGTAATTATTTGTACATATGCCTCTTAAACT [XGTACX_site748] | 9.64
4 | ACATAAATAATAAAAACACACATATGTACATATATA [CACACA_site1913] | 9.96
5 | TTTGTTCATATTATTGTGCACTTAAACGTAACAAAA [GTGCAC_site9505] | 9.54
6 | TTTATATTCTTAAGTGTGCACTATATATATATATAT [GTGCAC_site9719] | 9.9
7 | ACCCTATATGTAACTACACACCGCATATTGTTTACT [CACACA_site3071] | 10.5
8 | ATGTATGTATATACTTGTACATATTCATATTAGTAT [XGTACX_site1118] | 9.62
9 | AATGTAGCATTTTATCGTACACTTAATACAAAAAAG [XGTACX_site6214] | 9.5
10 | AAAATAATATTTAATACACACACCAGTTCTGCAAAT [CACACA_site3736] | 10.9
11 | TAATAAGTAAAAAAATGTACCCGTTAGGTTTAATAA [XGTACX_site638] | 9.61
12 | TTTTTCTCTCTCTTATTATACAACAACAAAAAAAAA [GTGCAC_negctrl_site178] | 9.2
13 | AGAAATATATATATATATATATGTGACAATATTTGT [TGCATGCA_negctrl_site282] | 9.85
14 | TTTTTTTATTTTATTTTATTATCTTATGTATCACAA [CACACA_negctrl_site1755] | 9.61
15 | ACAAAAAGGTAATTTACACACTGCATATAGGAATAA [CACACA_site2929] | 9.9
16 | TATAATAATAATAATAGTACGTATTATTAAAAAACT [XGTACX_site10] | 9.91
17 | ATATTACACATATATGCACACATTGTAGTTATTTAT [CACACA_site8843] | 9.99
18 | CAATTACAAAAGAAATGTACTCGTAATAAATAAATA [XGTACX_site1126] | 9.77
19 | TGAAATTTTTATACATGTACAAAATTAAATATAACA [XGTACX_site7324] | 9.63
20 | TAAGTTCACAAAAAAAAAAAAAAATAAAGAAATAAA [CACACA_negctrl_site825] | 9.42
21 | AAATTATTTCCGTGTACACATAAATATATATTTTAT [CACACA_site5121] | 9.89
22 | TTATTATGCTGAGTACGTACTTATATAAGAATAGCA [XGTACX_site2955] | 9.55

Row | Sequence | gcPBM binding intensity (ln)
23 | TATTCTATATTTCTATTTAGAAAACATCCCAGTGTG [GTGCAC_negctrl_site184] | 9.24
24 | ATGTATATAATAAGAACACACATATATTTAATTTAA [CACACA_site2941] | 10
25 | AAAAATAAAATATATACATGCATATACATATTATAT [TGCATGCA_site668] | 9.65
26 | TGTTATATTTAATATAGTACATATTATTTTATATAT [XGTACX_site70] | 9.48
27 | ATTTATATGCACCATTGTACGTTTTATAAAGTTTGG [XGTACX_site3755] | 9.64
28 | AGAAAATTAAAAAGAACACACAAATATATATAGAAT [CACACA_site3592] | 10.1
29 | ATACATATATACATACGTACTTATATACATATGTGC [XGTACX_site5268] | 9.84
30 | TATCATGTCTGTATTTCACACACGGATAATCATTTA [CACACA_site920] | 9.84
31 | ACACATATATAAATATGTACATATATATATATACAT [XGTACX_site1595] | 9.83
32 | TAATTAAATAAAAAAACACACACATATATACATATA [CACACA_site9141] | 10.2
33 | TCTATTAATTAATATACACACATTAGATATAAATAT [CACACA_site7241] | 9.67
34 | AAAAAAAAAAAAAAAAGTACTAATTGAATATTAAAC [XGTACX_site3383] | 9.44
35 | ACATATATATAAATATATATATATATATATATATAT [CACACA_negctrl_site874] | 9.46
36 | ATGGTAAGTATTTTATGTACATATATATTTATATAA [XGTACX_site4003] | 9.63
37 | TACACCCATAGACACACACACACGCATAAAAAAAAA [CACACA_site8428] | 11.1
38 | AAAAAACAAAAAATTACACACATATATAAATATATT [CACACA_site2317] | 9.85
39 | TAATAAAGGTGTAATACACACTATAAAAAGGAATAT [CACACA_site4756] | 10
40 | ATGTGTATATATTATTGTACATATATATATATATAT [XGTACX_site4627] | 9.82
41 | ACAAGTTAAAATATTACACACATATAAATATATATA [CACACA_site3132] | 9.8
42 | TTTTATTTACACAGTGGTACTATTAAAAATTAATGA [XGTACX_site6737] | 9.4
43 | ATAAGGTTACAACAAACACACAAAGGAATATACTCA [CACACA_site6108] | 10
44 | TTTTTTAACCTTTTATGTACACAATATTTAACATTT [XGTACX_site1170] | 9.77

Row | Sequence | gcPBM binding intensity (ln)
45 | ACTTACACAGTTGATGGTACACTTTTATGATTTTGT [XGTACX_site3205] | 9.91
46 | TATATATAAAGGTGTACACATATATATATATCTGTA [CACACA_site5311] | 9.71
47 | ATTTCATATTATGTAACACACAACAAGATAATCAAA [CACACA_site1960] | 9.75
48 | TTTTTCAAATTTAATACACACACAAGTATATATTTA [CACACA_site9307] | 9.73
49 | TTTTTCTTTTTACATACACACAAAAAAATAAAATAT [CACACA_site581] | 9.49
50 | AAATTAATATTATGTGCATGCACAAAGAGGAACGAC [TGCATGCA_site754] | 10.1
51 | TGGTAATTTCTTTGATAAAAATTAATATGTATAAAT [XGTACX_negctrl_site152] | 9.29
52 | ATAATATGAAAACACACACACACACTAGAAAAAAAA [CACACA_site5153] | 10.9
53 | AAAAAAAAAAATATAACACACAACAAAAAAATATAT [CACACA_site1753] | 10.4
54 | ATTATTTAAATGGATGCACACATGCATTAAATAAAA [CACACA_site5831] | 9.68
55 | AATATTTGTTAAAGAGGTACACCATTTGGTAGGGAA [XGTACX_site2165] | 9.75
56 | TATTTTAACATTAGGTGTACATACAAAAATAAAAAT [XGTACX_site8577] | 9.76
57 | TCATACATGGTGTGTTTGCACTTGACCTATATTCAT | 9.74
58 | TCTTGAATAACAAAAAAATGTGCCAACAAAATAAAT [XGTACX_negctrl_site172] | 9.66
59 | TTTGTAAAACTATATTGTACTTTTATATATCTACAA [XGTACX_site5507] | 9.52
60 | ACAACTCGGAAGGTTTGTACTTAAAGTATAATTAAG [XGTACX_site737] | 9.44
61 | AATTGGAAGAAAAAAAAGGAAGGAAAGTTATTACAT [GTGCAC_negctrl_site74] | 9.51
62 | TATATACATGCATATACACACATATATTTATTTATA [CACACA_site6327] | 9.77
63 | TACTGAAATAATTATTTAAACGTTTTTATATGTATT [CACACA_negctrl_site487] | 9.82
64 | TTTATTTTTTCCAAGTCACACATGTTTTGATATATT [CACACA_site4946] | 9.74
65 | GTATATATGTATGTATGTACGTATATAGTTATGTAT [XGTACX_site6769] | 9.86
66 | ATAAAAAAATTAAATACATGCACATATACACATACA [TGCATGCA_site129] | 10

Row | Sequence | gcPBM binding intensity (ln)
67 | TAAATAGATGTTTTATGTACGTATAAATAAAAAAAA [XGTACX_site3412] | 9.68
68 | TTTTTTTAAAGACATGCATGTAATATTTAAATCATT [TGCATGCA_site495] | 9.72
69 | ATTAAAAATATAGTCACACATACACCCATATATATT [CACACA_site5394] | 9.97
70 | AGGATACACAGACACACACACATATATATATATATA [CACACA_site907] | 10.8
71 | ATACAACGATATATATATATACAAATACATATTTAT [CACACA_negctrl_site268] | 9.85
72 | GATTTTTTTTTGTGGACACACAGAAATAAATTTATA [CACACA_site327] | 9.58
73 | CACATACAGATATATACACACAAATATATATACTCA [CACACA_site4591] | 10.1
74 | AATATATTTTTTCACTGTACTTTTATTATATATACA [XGTACX_site8312] | 9.96
75 | AAAAAAAATGGATGATCACACACTTCATAAAAATTG [CACACA_site2213] | 9.79
76 | ATAATTTTTTGATTTGCATGTAATAAATATATGATA [TGCATGCA_site384] | 9.39
77 | AATTCATTTAAAAGTTGTACAAGCTTAATAAAAAAA [XGTACX_site6073] | 9.68
78 | ATATACACATAAAGTAGTACACCTGAAATTTTTTTT [XGTACX_site2951] | 9.73
79 | GAGGATATATTATATGTACACACATATATAACGGAT [CACACA_site8361] | 9.94
80 | GTATTTTTTTTAATATGTACATATAAAATATTTTAT [XGTACX_site8329] | 9.77
81 | AATACAATTTATAACACACACACAATAATACATATA [CACACA_site1252] | 10.5
82 | ATATAAGTTTATATATGTACATATATATATTATATA [XGTACX_site2068] | 9.62
83 | AATATATGAATTAGAAGTACAAATAAATATTTATTT [XGTACX_site2062] | 9.53
84 | TTAATCATAAAAGTCACACATAATAAGAAAAAGCTT [CACACA_site4616] | 9.7
85 | CCCATGCATTTTTGCACACACATATATATATAAATA [CACACA_site1430] | 9.86
86 | AATTAAAAATATAAATGTACATATATGTAAAACTTT [XGTACX_site123] | 9.97
87 | AAGAGTTTGAAGTTTGCACACTACGTTAAAAATAAA [CACACA_site3939] | 9.66
88 | AATATAATGTAATATACACACATATATTTCTCTTTT [CACACA_site5451] | 9.87
